# According to the BET-seq Pho4 binding data (Le et al. 2018):
# The other results are listed elsewhere or left out. The energies were worked out here from pooled read counts, against the library average; single values are noisy.
# Biological target: T1, Pho4 (S. cerevisiae) (UniProt P07270)
# T1 sequence: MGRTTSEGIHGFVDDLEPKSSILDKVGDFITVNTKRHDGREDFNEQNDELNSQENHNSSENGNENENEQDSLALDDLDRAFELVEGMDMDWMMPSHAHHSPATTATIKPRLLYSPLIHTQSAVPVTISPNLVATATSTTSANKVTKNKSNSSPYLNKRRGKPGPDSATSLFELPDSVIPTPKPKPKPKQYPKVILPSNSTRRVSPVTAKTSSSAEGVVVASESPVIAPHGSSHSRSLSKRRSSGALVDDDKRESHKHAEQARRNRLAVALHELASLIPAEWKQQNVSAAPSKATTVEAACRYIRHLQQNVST
# Assay: relative binding free energy (BET-seq); higher = weaker binding
# Conditions: reference: library average
row,Sequence,relative binding free energy [kcal/mol]
1,GGGCGCACGTGAGTTG,0.29
2,TTTTTCACGTGCGATA,0.11
3,GTGGTCACGTGTTGAA,0.08
4,TGAGTCACGTGTCAGG,0.11
5,GTTTGCACGTGCCTTT,-0.03
6,GTCGACACGTGTGTGG,0.04
7,TTCATCACGTGGTGCG,0
8,TGTTTCACGTGAGCTT,0.4
9,AAGCTCACGTGGTTGT,0.29
10,TGGCGCACGTGCTGTA,-0.2
11,TTTATCACGTGTGGCC,0.21
12,TGACGCACGTGGTTGG,-0.21
13,CGGGTCACGTGTGATC,0.47
14,TGGGCCACGTGTTTAA,0.03
15,TGGAACACGTGTGTTC,0.09
16,GGTGTCACGTGAACGT,0.22
17,CGTGCCACGTGGTTAG,-0.19
18,GGGGTCACGTGGGTCC,0.03
19,GATGACACGTGGTTAG,-0.03
20,GATGGCACGTGTTGTG,0
21,GCGCGCACGTGTGGGT,-0.16
22,TATGTCACGTGTAAAT,0.23
23,CGACTCACGTGTGGGA,0.29
24,ATATACACGTGGTTGA,-0.08
25,TAGGGCACGTGTATTG,-0.09
26,CGATGCACGTGGGGGG,-0.13

row,Sequence,relative binding free energy [kcal/mol]
1,GTGTGCACGTGCGATT,-0.09
2,TCGGTCACGTGTGCTT,0.1
3,TGATGCACGTGAAATT,0.32
4,TCGAGCACGTGTGGTT,0.11
5,TTCATCACGTGTGATT,0.2
6,TGGCGCACGTGGGGGG,-0.23
7,GCATTCACGTGGTAGA,0.31
8,TTGCACACGTGGAAGG,0.06
9,GGGAACACGTGGGTAG,-0.06
10,GTTGGCACGTGACGAT,0.07
11,ATTGACACGTGTGCTT,-0.03
12,ACTTGCACGTGTTGTA,-0.05
13,TCTGTCACGTGCATGT,0.04
14,ATTTGCACGTGTTAGA,0.09
15,CGGAGCACGTGAGGTA,0.19
16,TTTGTCACGTGTATAG,0.13
17,TAGATCACGTGTGGGG,0.22
18,TAGAACACGTGGGTAA,0.02
19,TGTCTCACGTGGGGCA,-0.01
20,TAGTTCACGTGTAGTC,0.12
21,TTTGACACGTGTTTGG,0.05
22,GGCGTCACGTGTTAAG,0.14
23,TATAGCACGTGTGAGC,0
24,TAATTCACGTGTGATG,0.28
25,AGGTGCACGTGGGCGT,-0.26
26,GAGGCCACGTGGGGGT,-0.13

row,Sequence,relative binding free energy [kcal/mol]
1,TTTTCCACGTGATAGG,0.09
2,GTCGTCACGTGGGATG,0.14
3,GAGGGCACGTGGGTCC,-0.18
4,AGGGACACGTGTGGCA,0.08
5,ATGGTCACGTGTAAGC,0.17
6,TAAAACACGTGAGGGT,0.22
7,GTGTACACGTGGCTTA,0.04
8,ATAGTCACGTGTATTG,-0.02
9,AAGTGCACGTGTTGGG,-0.04
10,TGTTTCACGTGTCCTT,0.14
11,GCCTGCACGTGGGGGC,-0.06
12,CGGGTCACGTGGTTTT,0.16
13,CTTTCCACGTGTTGTT,-0.03
14,AGAGTCACGTGGGAGA,0.1
15,CTTTTCACGTGGCTGG,0.12
16,ATTTTCACGTGTTTGC,0.3
17,GAGGGCACGTGCGTTG,-0.17
18,GGTGTCACGTGTATAT,0.09
19,GTTATCACGTGAGGAA,0.39
20,GGTGTCACGTGGAAGA,0.26
21,ATTGTCACGTGAGAGT,0.29
22,CGTGACACGTGGGGGC,-0.15
23,GGGATCACGTGAAAGT,0.37
24,GGTGGCACGTGGTGTA,-0.07
25,CTGTTCACGTGGTCAG,0.12
26,TGGGGCACGTGAGTGG,0.16

row,Sequence,relative binding free energy [kcal/mol]
1,GTTTACACGTGTAATT,0.29
2,GTTGCCACGTGATGGA,0.12
3,TTGTGCACGTGTTCAG,-0.13
4,GGGATCACGTGGCGCG,0.09
5,GTGTGCACGTGGCTCG,-0.08
6,GTATTCACGTGTGATG,0.34
7,GTGGACACGTGCAGGC,0.12
8,CCATGCACGTGTGGTG,-0.03
9,TAGGGCACGTGGATCA,-0.09
10,ATTGACACGTGGTCGA,-0.1
11,GTAGTCACGTGGCTGG,0.14
12,ATCATCACGTGTTGAT,0.27
13,CTTGGCACGTGTTTGG,-0.26
14,CGGATCACGTGGTGGA,0.16
15,AGTTTCACGTGCTTTA,0.18
16,ATTTGCACGTGAAAAT,0.19
17,TTCCACACGTGGGGTT,-0.06
18,GTTATCACGTGGTGAC,0.11
19,GTCTGCACGTGTCTGT,0.03
20,GGGTGCACGTGGGGCC,-0.16
21,TACTGCACGTGCTGGT,-0.12
22,TTAGACACGTGTTGTC,0.08
23,TGTCACACGTGTGATG,0.19
24,ATGTGCACGTGGGAAT,-0.09
25,AGGTGCACGTGATGTA,0.05
26,ACTTGCACGTGGGGAT,-0.23

row,Sequence,relative binding free energy [kcal/mol]
1,TGTTACACGTGATGGG,0.29
2,GTGTACACGTGAGAGA,0.14
3,TAGTTCACGTGTGTTG,0.4
4,GGGCGCACGTGCTTGG,-0.13
5,TGATGCACGTGGGGTA,-0.04
6,TCGGACACGTGGTTGA,-0.03
7,TGTTTCACGTGTGCGG,0.3
8,CAGTTCACGTGTTATG,0.28
9,TGGGTCACGTGAGGAA,0.35
10,TAGGGCACGTGACGGC,0.05
11,GTCGTCACGTGTAGTG,0.15
12,GGGGACACGTGAGGCA,0.11
13,ATTTGCACGTGCCGGG,-0.08
14,GGAAGCACGTGTTGAT,-0.07
15,TGTCGCACGTGGGGTC,-0.26
16,TTAAGCACGTGAGATG,0.26
17,TTTTTCACGTGAACTT,0.39
18,GATCACACGTGGTGGT,0.16
19,TAATGCACGTGTATTG,-0.06
20,TTTGGCACGTGCTTGT,-0.16
21,CTAGTCACGTGTGTAG,0.03
22,TAAGTCACGTGTGTAA,0.12
23,ATAATCACGTGGTCTT,-0.01
24,GGGGACACGTGTTTGT,0.18
25,GTCGTCACGTGGATTA,0.22
26,GGTTGCACGTGGCGTC,-0.14

row,Sequence,relative binding free energy [kcal/mol]
1,AATGACACGTGGTATT,-0.19
2,AGTGGCACGTGCTGTG,-0.23
3,ATTTTCACGTGACTTA,0.17
4,TGTGTCACGTGATGAC,0.23
5,TTGCTCACGTGGTTTC,0.28
6,TTTTGCACGTGGAGGC,-0.08
7,AATTTCACGTGGTGCG,0.16
8,TGTTTCACGTGGTCAT,0.21
9,TCAGGCACGTGGTGAT,-0.02
10,ATAGGCACGTGTGCTT,-0.09
11,TTTGTCACGTGCAGCG,0.2
12,TTTTGCACGTGATAGA,0.1
13,ATTGGCACGTGATACT,0.18
14,GTTTCCACGTGTTATT,0.16
15,CGGGGCACGTGGTGAT,-0.16
16,TCTGTCACGTGACAGT,0.31
17,GGGATCACGTGGGCAG,0.07
18,CTATTCACGTGGGTAG,0.03
19,TGGTTCACGTGCGGCG,0.21
20,GGGTTCACGTGCAGAT,0.26
21,GGCCTCACGTGGAGGT,0.15
22,TTACGCACGTGATTAT,0.19
23,ATTTTCACGTGACGTG,0.42
24,ATGTTCACGTGTATCA,0.23
25,ATCTGCACGTGTGCGG,0
26,GGGCACACGTGGCGAG,0.06

row,Sequence,relative binding free energy [kcal/mol]
1,TATGACACGTGTAAAG,0.17
2,TTGGCCACGTGAGTTG,0.24
3,TTGTTCACGTGGTTAA,0.18
4,CAGGGCACGTGTGTCT,-0.13
5,CTTGGCACGTGGTTGA,-0.2
6,CATTGCACGTGGGGGC,-0.04
7,TTAAGCACGTGTGTTA,0.02
8,AGGAACACGTGTGTGG,0.1
9,CTGCGCACGTGGTGAT,-0.15
10,TACGACACGTGGAGTG,-0.09
11,ATGGCCACGTGGGTGA,-0.22
12,ATGAACACGTGGTGGT,-0.03
13,ATGGTCACGTGGAGTT,0.2
14,CTAGGCACGTGTTTGG,-0.13
15,TGATGCACGTGGATGA,-0.05
16,GATAACACGTGATGTT,0.17
17,TGTGTCACGTGGATCT,0.03
18,GGTTGCACGTGCTGAT,0.07
19,AATAGCACGTGGCTTT,-0.03
20,AATGTCACGTGTGTTA,0.12
21,AGGGCCACGTGTCAGG,-0.16
22,TCAGTCACGTGGTTGG,-0.01
23,AGGGTCACGTGGTAAG,0.12
24,TTGTTCACGTGAGAGT,0.4
25,ATTGGCACGTGGTTCG,-0.23
26,TATCTCACGTGCTGGT,0.13

row,Sequence,relative binding free energy [kcal/mol]
1,CTTTGCACGTGATGTG,0.15
2,AGATTCACGTGTATGT,0.11
3,CAATTCACGTGGGTAA,0.23
4,AGGGCCACGTGGTATG,-0.16
5,GGAGGCACGTGGCGGT,-0.2
6,GTATTCACGTGTACGG,0.18
7,GATGTCACGTGAGGGT,0.39
8,AAGCGCACGTGTTTTG,-0.15
9,TCAGGCACGTGTGAGT,0.03
10,CGGTACACGTGGGCGG,-0.09
11,CAGATCACGTGGGTCG,0.16
12,AAGAGCACGTGGGTGA,-0.13
13,TGGGTCACGTGTGGTC,0.16
14,TCGTACACGTGGGGCG,0.11
15,TTGGTCACGTGGGACG,0.07
16,TGGGACACGTGTCTAG,-0.09
17,TTGTCCACGTGTTAAT,0.04
18,AGAGGCACGTGTTCGA,0.05
19,AGATTCACGTGGTTAG,0.11
20,AGTATCACGTGGAGTC,0.2
21,ATGGTCACGTGATGTG,0.35
22,GTGGGCACGTGCCGCG,-0.12
23,CTTGGCACGTGTTGGA,0
24,AGTGTCACGTGGACTA,-0.04
25,GCGGGCACGTGATGGG,0.11
26,GGATTCACGTGTGCTT,0.34

row,Sequence,relative binding free energy [kcal/mol]
1,CGTGTCACGTGAAGGT,0.23
2,TAGGTCACGTGATAGA,0.16
3,TCTTGCACGTGTTAGT,0.05
4,AGGGGCACGTGATTCG,-0.1
5,GTAGCCACGTGTGAGT,-0.04
6,ATAAACACGTGGTGGT,-0.13
7,CGAGTCACGTGTGATT,0.12
8,ATGATCACGTGATGGC,0.19
9,TCATACACGTGGGTTT,0.05
10,TAGTGCACGTGGGGAC,-0.1
11,TGGGTCACGTGACCGG,0.24
12,AGGGCCACGTGGGTAT,-0.28
13,CCGGTCACGTGGTATG,-0.04
14,TACAGCACGTGGGGTT,-0.12
15,GTAGACACGTGGGAGT,-0.07
16,GAGTGCACGTGATAGG,0.23
17,TTTGGCACGTGCAGGC,-0.08
18,AGCTACACGTGGTATG,-0.04
19,GTGGGCACGTGTGGAA,0.02
20,GCGTGCACGTGGGGTT,-0.13
21,GTTAACACGTGGTCTG,-0.12
22,ACGTGCACGTGGTTGG,-0.17
